Target: human Claudin 18.2 (human)
Test: cell-based or functional assay

B1: h1902-5 (antibody, human IgG1, kappa)
heavy: EVQLVQSGAEVKKPGASVKVSCKASGYTFTSYWMHWVRQAPGQRLEWMGMIHPNSGSTNYNEKFKGRVTITRDTSASTAYMELSSLRSEDTAVYYCARLKTGNSFDYWGQGTTVTVSS[human IgG1 constant region left out]
light: DIVLTQSPDSLAVSLGERATINCKSSQSLLNSGNQKNYLTWYQQKPGQPPKLLIYWASTRESGVPDRFSGSGSGTDFTLTISSLQAEDVAVYYCQNAYTYPFTFGQGTKLEIKRTVAAPSVFIFPPSDEQLKSGTASVVCLLNNFYPREAKVQWKVDNALQSGNSQESVTEQDSKDSTYSLSSTLTLSKADYEKHKVYACEVTHQGLSSPVTKSFNRGEC
- IC50 (ng/ml), ADCC effect (FcrR3A-V158-NFAT-RE-Jurkat effector cells, Bright-Glo), NUGC4 cells with high expression of Claudin 18.2: 32.2 ng/mL
- IC50 (ng/ml), ADCC effect (FcrR3A-V158-NFAT-RE-Jurkat effector cells, Bright-Glo), NUGC4 cells with low expression of Claudin 18.2: 35.5 ng/mL
- IC50 (ng/ml), ADCC effect (FcrR3A-V158-NFAT-RE-Jurkat effector cells, Bright-Glo), NUGC4 cells with medium expression of Claudin 18.2: 30 ng/mL

Source: patent US20220185881A1 (JIANGSU HENGRUI MEDICINE, published 2022)
